# Among all 310,000 compounds or so, about 14,000 (4.5%) showed an effect of 50% or more. The effect is printed as a negative number. The list shows a part of the results.
# Biological target: human ether-à-go-go-related gene (hERG) potassium channel (human, UniProt Q12809)
# Experiment: primary screen, population patch clamp on CHO cells stably expressing hERG
# 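Also: peak tail current of the secondary pulse compared with the same well before compound.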
# Sequence of human ether-à-go-go-related gene (hERG) potassium channel (Q12809 whole entry, looked up): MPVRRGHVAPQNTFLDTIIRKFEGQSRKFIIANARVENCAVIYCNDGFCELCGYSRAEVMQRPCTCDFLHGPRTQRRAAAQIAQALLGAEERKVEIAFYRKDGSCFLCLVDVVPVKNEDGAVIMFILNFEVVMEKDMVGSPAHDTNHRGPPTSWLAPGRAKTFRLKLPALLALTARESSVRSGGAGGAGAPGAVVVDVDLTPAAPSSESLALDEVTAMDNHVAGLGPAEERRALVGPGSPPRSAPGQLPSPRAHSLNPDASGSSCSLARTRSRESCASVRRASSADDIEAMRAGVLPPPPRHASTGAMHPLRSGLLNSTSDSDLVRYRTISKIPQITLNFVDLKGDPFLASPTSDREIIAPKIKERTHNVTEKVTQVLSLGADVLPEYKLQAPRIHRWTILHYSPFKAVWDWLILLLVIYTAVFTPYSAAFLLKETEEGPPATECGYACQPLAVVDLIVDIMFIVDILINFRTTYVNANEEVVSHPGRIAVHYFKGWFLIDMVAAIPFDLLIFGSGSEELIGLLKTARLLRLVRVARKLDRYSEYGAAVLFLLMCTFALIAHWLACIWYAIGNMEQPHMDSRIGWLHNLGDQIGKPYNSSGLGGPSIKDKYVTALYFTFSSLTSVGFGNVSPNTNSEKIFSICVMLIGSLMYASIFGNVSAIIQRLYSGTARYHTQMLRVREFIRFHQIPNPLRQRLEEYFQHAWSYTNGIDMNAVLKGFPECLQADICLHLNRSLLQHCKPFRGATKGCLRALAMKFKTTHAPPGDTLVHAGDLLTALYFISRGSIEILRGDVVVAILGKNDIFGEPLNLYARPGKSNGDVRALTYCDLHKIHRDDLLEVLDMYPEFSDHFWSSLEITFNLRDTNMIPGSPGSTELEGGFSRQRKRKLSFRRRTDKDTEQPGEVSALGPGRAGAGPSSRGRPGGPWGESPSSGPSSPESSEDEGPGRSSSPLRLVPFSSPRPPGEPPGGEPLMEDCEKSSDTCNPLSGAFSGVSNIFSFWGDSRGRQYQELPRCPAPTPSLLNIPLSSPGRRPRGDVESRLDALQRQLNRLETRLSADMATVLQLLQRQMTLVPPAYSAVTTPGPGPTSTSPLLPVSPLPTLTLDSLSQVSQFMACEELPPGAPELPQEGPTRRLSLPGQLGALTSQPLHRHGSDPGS
row,Compound,"hERG current change (%, negative = inhibition) at 10uM"
1,Nc1cc(=O)nc(SCC(=O)N(C2CCCCC2)C2CCCCC2)n1-c1ccccc1,9.2%
2,COCCOC(=O)C1=C(C)NC2(O)c3ccccc3C(=O)C12O (centres unmarked),24.4%
3,Cc1ccc(C)c(OCc2cc(C(=O)NC3CCN(Cc4ccccc4)CC3)no2)c1,-41.1%
4,Cc1cc2nnc(SCC(=O)NCc3ccco3)n2c2ccccc12,14.4%
5,O=C(NCc1ccncc1)c1cc(C(=O)C2CC2)c[nH]1,21.6%
6,N#C/C(=C\c1cccnc1)c1ccccc1[N+](=O)[O-],4.04%
7,COc1ccc(C2(O)CCN(C(=O)Cc3cccnc3)CC2)cc1,-12.6%
8,COc1ccc(-c2csc(NC(=O)COc3ccc(N(C)S(=O)(=O)c4ccc(C)cc4)cc3)n2)cc1,3.24%
9,CCc1ccc(C(=O)OCC(=O)c2c(N)n(CC(C)C)c(=O)n(C)c2=O)cc1,-0.249%
10,Cc1ccc(CNC(=O)c2ccc(NC(=O)CCS(=O)(=O)c3cccs3)cc2)cc1,9.58%
11,Cl.O=C(CN1CCCC1)NCC1(c2ccccc2)CCOCC1,6.69%
12,O=C(/C=C/c1ccccc1)NCCC1=CCCCC1,6.81%
13,COc1ccc(NC2=CC(=O)N(C)C2=O)cc1,1.61%
14,O=C(c1cn(-c2ccccc2)nc1-c1ccc(Br)cc1)N1CCOCC1,-5.61%
15,COc1ccc(-c2cc(C(F)(F)F)nc(N3CCN(C)CC3)n2)cc1,3.53%
16,S=C(NCc1ccco1)N/N=C/c1cccnc1,-4.64%
17,COc1ccc(/C=C(/C(=O)Nc2ccccc2C(=O)NC(C)C)c2ccccc2)cc1,9.52%
18,CC1CC(C)CN(S(=O)(=O)c2ccc(C(=O)N3CCCC3)cc2)C1 (centres unmarked),-25.2%
19,Cc1ccc(NC(=O)CCNS(=O)(=O)c2cccc3nonc23)cc1Cl,5.41%
20,O=C(N/N=C/C=C/c1ccccc1)c1cc(C2CC2)[nH]n1,-15%
21,Cc1cccc2[nH]c(CN(C)C(=O)C3CCC(=O)N(C4CC4)C3)nc12 (centres unmarked),17.5%
22,O=C(COc1ccccc1)N1CCN(C(=O)c2cccs2)CC1,-13.4%

row,Compound,"hERG current change (%, negative = inhibition) at 10uM"
1,CSc1cc(-c2ccco2)oc1C(=O)c1ccco1,0.806%
2,CC1CC(C)CN(C(=O)C2CCCN(c3ncnc4c3nc3n4CCCCC3)C2)C1 (centres unmarked),-35.8%
3,COc1ccc(C(Nc2ccc(S(=O)(=O)N3CCOCC3)cc2)C(=O)NCCC(C)C)cc1OC (centres unmarked),-2.25%
4,CCOc1c(N2CC(C)OC(C)C2)c(=O)c1=O (centres unmarked),10.2%
5,Cc1ccc(-c2csc(NC(=O)c3cccc(N4C(=O)CCC4=O)c3)n2)o1,-8.13%
6,CCc1cccc2c(C(=O)COC(=O)/C=C/c3ccc(O)c(OC)c3)c[nH]c12,-0.674%
7,O=C(CNC(=O)c1ccc(Cl)cc1Cl)OCCCn1c(=O)[nH]c2ccccc21,-28%
8,O=C(CCc1ccc(S(=O)(=O)N2CCOCC2)cc1)Oc1ccccc1,-9.71%
9,COc1ccc(C(=O)N2CCN(CCNC(=O)C(=O)Nc3ccc(F)cc3)CC2)cc1,-69.6%
10,O=C(O)Cn1nnc(-c2cccs2)n1,17.7%
11,Cc1ccc(S(=O)(=O)N2CCN(C(=O)CN3CCCCC3)C2)cc1,-3.76%
12,CN(C)C(=O)CSc1ncccc1-c1nc2ccccc2[nH]1,13.1%
13,O=C(OCCN=C1NS(=O)(=O)c2ccccc21)c1ccccc1,-4.4%
14,C[C@@H]1CN(Cc2cn(C)nc2-c2cccc(Cl)c2)C[C@H](C)O1,7.05%
15,c1ccc(C[C@H]2CN=C(Nc3ccccc3)N2CCC2CCCC2)cc1,-70.4%
16,C/C(=N\N=C1\NC(=O)C(Cc2ccccc2)S1)c1ccccc1 (centres unmarked),16.2%
17,CCOc1ccc(NC(=O)CSc2nnc(N)s2)c([N+](=O)[O-])c1,-4.34%
18,Fc1cc2[nH]c(=S)[nH]c2cc1Cl,15.9%
19,NC(=O)c1ccsc1NC(=O)C1CCCCC1,-9.84%
20,CC1=Nc2cc(C(=O)NCCCN3CCN(C)CC3)ccc2Sc2ccc(C)cc21,-5.05%
21,O=C(CSc1nc2scc(-c3ccccc3)c2c(=O)[nH]1)Nc1ccccc1,17.9%
22,CC(=O)Nc1cccc(NC(=O)COc2ccc3c(c2)OCO3)c1,4.48%
